Assay results from PubChem BioAssay AID1460 (National Center for Advancing Translational Sciences (NCATS), 2008).
About 5,800 (2.1%) of roughly 270,000 compounds were called active. This list was built around the results that the source calls inconclusive (neither active nor inactive); the mix of calls is not that of the screen. Calls come from the whole dose curve; as a rule, active = well fitted inhibition curve with a large enough effect; inconclusive = small, poorly fitted or top-dose-only effect; inactive = flat fitted curve, though single readings scatter. Where the call is inconclusive, the potency comes from a doubtful curve fit.

Biological target: Microtubule-associated protein tau (Homo sapiens) (UniProt P10636)
Experiment: qHTS for Inhibitors of Tau Fibril Formation, Thioflavin T Binding; note: nearly all actives have a fitted effect of over 55% in size
Details: recombinant tau K18 P301L (four-repeat tau fragment), heparin-induced fibrillization, ThT fluorescence; series mostly up to 57.4 µM
Method in brief: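 In this qHTS, human K18 P301L tau is incubated with compound and heparin for 6 hr at 37 C, and Thioflavin T fluorescence then reports fibril load.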
Potency is the fitted concentration of half-maximal effect; tags give direction and shape of the fitted curve.

UniProt P10636, sequence (P10636 whole entry, looked up): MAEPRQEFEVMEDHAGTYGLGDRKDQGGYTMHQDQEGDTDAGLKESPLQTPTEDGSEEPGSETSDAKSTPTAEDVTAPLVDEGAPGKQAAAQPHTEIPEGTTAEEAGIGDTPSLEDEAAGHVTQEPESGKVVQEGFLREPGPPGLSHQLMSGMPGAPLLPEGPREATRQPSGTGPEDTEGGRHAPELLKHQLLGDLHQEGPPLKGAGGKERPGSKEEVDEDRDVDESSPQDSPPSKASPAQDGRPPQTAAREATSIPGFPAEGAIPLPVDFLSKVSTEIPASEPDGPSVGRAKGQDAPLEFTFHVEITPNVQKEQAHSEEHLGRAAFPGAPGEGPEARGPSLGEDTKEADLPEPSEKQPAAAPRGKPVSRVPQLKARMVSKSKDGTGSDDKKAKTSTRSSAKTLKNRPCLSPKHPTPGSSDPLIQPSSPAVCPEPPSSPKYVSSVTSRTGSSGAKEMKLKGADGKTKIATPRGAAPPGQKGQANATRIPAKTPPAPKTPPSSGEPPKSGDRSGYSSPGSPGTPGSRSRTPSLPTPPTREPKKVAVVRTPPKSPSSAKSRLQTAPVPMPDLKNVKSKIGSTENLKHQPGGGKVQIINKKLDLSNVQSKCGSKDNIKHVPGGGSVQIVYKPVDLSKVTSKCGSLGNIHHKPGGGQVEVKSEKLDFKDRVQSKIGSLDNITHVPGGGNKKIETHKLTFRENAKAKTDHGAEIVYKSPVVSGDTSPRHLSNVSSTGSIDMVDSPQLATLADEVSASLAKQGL

Q: Which Potency does the source give for `COc1ccc(-n2c(COc3cccc4ccccc34)nnc2SCC(=O)NCc2ccco2)cc1` here?
A: inconclusive: 44.7 µM [inhibitor, single point]

Q: `C#Cc1ccc(C(=O)Nc2ccc(N3CCC(C)CC3)c(C(N)=O)c2)cc1` was tested. Which Potency did it give?
A: inconclusive: 3.16 µM [activator, partial curve, poor fit]

Q: With `O=C(/C=C/c1ccc(O)cc1)c1ccc(NC2=C(N3CCCCC3)C(=O)c3ccccc3C2=O)cc1` as the molecule, how does the Potency read?
A: active: 7.94 µM

Q: With `O=C(NCCSc1c[nH]c2ccccc12)c1ccc(Cl)cc1` as the molecule, how does the Potency read?
A: inconclusive: 28.2 µM [inhibitor, partial curve]

Q: `O=C(CSc1nc(Cc2ccccc2)nc2ccccc12)c1ccc2c(c1)OCCO2` was tested. Which Potency did it give?
A: inactive

Q: Which Potency does the source give for `CCc1c(C)sc(NC(=S)Nc2cccnc2)c1C(=O)OC` here?
A: inactive

Q: With `CCOc1ccccc1CNC(=O)Cn1c(=O)c2cccn2c2ccc(F)cc21` as the molecule, how does the Potency read?
A: inconclusive: 0.0708 µM [inhibitor, full curve, poor fit]

Q: Which Potency does the source give for `CN(C)c1ccc(CN(C(=O)/C=C/c2ccccc2Cl)C2CCS(=O)(=O)C2)cc1` (stereo unspecified) here?
A: inconclusive: 11.2 µM [inhibitor, partial curve, poor fit]

Q: Which Potency does the source give for `COC(=O)c1cc(NC(=O)Cc2coc3cc(OC)ccc23)cc(C(=O)OC)c1` here?
A: inconclusive: 25.1 µM [inhibitor, single point]

Q: With `COCCN1CCc2nc(SCC(=O)Nc3ccc(C)c(Cl)c3)[nH]c(=O)c2C1` as the molecule, how does the Potency read?
A: inactive

Q: With `Nc1ccc(-c2ccc(N)c([N+](=O)[O-])c2)cc1[N+](=O)[O-]` as the molecule, how does the Potency read?
A: inconclusive: 2 µM [inhibitor, full curve]

Q: Which Potency does the source give for `COc1ccc(Nc2nc3ccc(C)cc3nc2-n2nc(C)cc2C)cc1Cl` here?
A: inactive

Q: `Cc1ccc(NC(=O)CSc2nnc(-c3cccnc3)s2)cc1` was tested. Which Potency did it give?
A: inactive

Q: For `Nc1cc(Cl)ccc1Oc1ccc2ccccc2c1`, which Potency is on record?
A: inconclusive: 35.5 µM [inhibitor, partial curve]

Q: Which Potency does the source give for `Fc1ccccc1OCCSc1nnnn1-c1ccccc1` here?
A: inactive

Q: `O=C1CC(c2ccc(OCCCCCOc3ccc(C4CC(=O)NC4=O)cc3)cc2)C(=O)N1` (stereo unspecified) was tested. Which Potency did it give?
A: inconclusive: 20 µM [inhibitor, partial curve]

Q: How did the Potency turn out when `CCCC(=O)OC/C(O)=C(\C#N)c1nc2ccccc2[nH]1` was run?
A: inconclusive: 25.1 µM [inhibitor, single point]

Q: For `Nc1[nH]nc2nc3ccccc3nc12`, which Potency is on record?
A: inconclusive: 39.8 µM [inhibitor, single point]

Q: How did the Potency turn out when `Cc1c(N2C(=O)/C(=C3/C(=O)N(C)c4ccccc43)SC2=S)c(=O)n(-c2ccccc2)n1C` was run?
A: inconclusive: 17.8 µM [inhibitor, partial curve]

Q: Which Potency does the source give for `O=[N+]([O-])c1ccc(Nc2ccc3ccccc3c2)nc1` here?
A: active: 1.26 µM

Q: How did the Potency turn out when `CCOc1ccc(NC(=O)CSc2nnc3scc(-c4ccccc4)n23)cc1` was run?
A: inconclusive: 22.4 µM [inhibitor, single point]

Q: How did the Potency turn out when `CC(C)(C)NC(=O)CSc1nnc(-c2ccncc2)n1Cc1ccccc1` was run?
A: inactive

Q: How did the Potency turn out when `Cc1ccccc1NC(=O)/C=C/c1ccc([N+](=O)[O-])s1` was run?
A: active: 12.6 µM

Q: For `Cc1oc(-c2cccc(Cl)c2)nc1CSc1nc2c(c(=O)[nH]1)CCC2`, which Potency is on record?
A: inactive

Q: `Cc1ccc(OCCSc2nc3ccccc3n2CC(=O)N2CCOCC2)cc1` was tested. Which Potency did it give?
A: inconclusive: 2.82 µM [inhibitor, partial curve]

Q: `CC1=C(C(=O)OCc2ccc(C)cc2)C(c2ccccc2C(F)(F)F)CC(=O)N1` (stereo unspecified) was tested. Which Potency did it give?
A: inactive

Q: How did the Potency turn out when `Cc1cc(C2=NNC(=Nc3ccc(S(=O)(=O)N4CCOCC4)cc3)SC2)c(C)n1CC1CCCO1` (stereo unspecified) was run?
A: inconclusive: 7.94 µM [inhibitor, partial curve]

Q: With `CC1CCCCN1Cc1c(O)ccc2c(=O)c(-c3ccc(Cl)cc3)c(C(F)(F)F)oc12` (stereo unspecified) as the molecule, how does the Potency read?
A: inactive

Q: For `COc1ccc(CCNC(=O)CSc2nnnn2-c2ccccc2)cc1`, which Potency is on record?
A: inactive

Q: Which Potency does the source give for `CCN1CCN(c2ccc(NC(=O)c3cnccn3)cc2)CC1` here?
A: inconclusive: 17.8 µM [inhibitor, partial curve]

Q: With `CCOC(=O)c1noc2ncn(CC(=O)Nc3ccc(F)cc3Cl)c(=O)c12` as the molecule, how does the Potency read?
A: inactive

Q: For `O=C(Nc1ncccn1)C1c2ccccc2Oc2ccccc21`, which Potency is on record?
A: inconclusive: 7.94 µM [inhibitor, full curve, poor fit]

Q: For `Cc1cccc(OCCn2cc(/C=N/NC(=O)c3ccncc3)c3ccccc32)c1`, which Potency is on record?
A: inconclusive: 20 µM [inhibitor, single point]

Q: `N#CC(C#N)=Cc1cccn1-c1ccc(C(=O)O)cc1` was tested. Which Potency did it give?
A: inactive

Q: `CC(=O)Oc1ccc(C(=O)Nc2ccccc2C(=O)NCC(C)C)cc1` was tested. Which Potency did it give?
A: inactive

Q: `Cc1ccc(O)c(NC(=O)CCS(=O)(=O)c2nc(-c3cccs3)cc(C(F)(F)F)n2)c1` was tested. Which Potency did it give?
A: inconclusive: 10 µM [inhibitor, partial curve]

Q: With `C#CC(C)(CC)NC(=O)c1cc2nc(C3CC3)cc(C(F)(F)F)n2n1` (stereo unspecified) as the molecule, how does the Potency read?
A: inactive

Q: How did the Potency turn out when `Cc1ccc(C(c2nnnn2C(C)(C)C)N2CCC(C)CC2)cc1` (stereo unspecified) was run?
A: inactive

Q: With `O=C(CSC1=NC(=O)C(c2ccccc2)C(=O)N1)Nc1cccc(Cl)c1` (stereo unspecified) as the molecule, how does the Potency read?
A: inconclusive: 31.6 µM [inhibitor, partial curve]

Q: `N#Cc1nc(Cc2ccccc2)oc1N1CCN(c2ccccc2)CC1` was tested. Which Potency did it give?
A: inconclusive: 8.91 µM [inhibitor, full curve, poor fit]

Q: Which Potency does the source give for `COc1cccc(CN2C(=O)c3cccc(N)c3C2=O)c1` here?
A: inconclusive: 10 µM [activator, partial curve]

Q: Which Potency does the source give for `Cc1cccc(OCCC(=O)Nc2ccc(C)c(S(=O)(=O)N3CCCCC3)c2)c1` here?
A: inactive

Q: How did the Potency turn out when `CN1CCN(CC(=O)Nc2nc(-c3c[nH]c4ccccc34)cs2)CC1` was run?
A: inconclusive: 15.8 µM [inhibitor, partial curve]

Q: For `COc1ccccc1N1CCN(CCCCCCOc2ccc(F)cc2)CC1`, which Potency is on record?
A: inconclusive: 25.1 µM [inhibitor, partial curve]

Q: Which Potency does the source give for `CCCCc1ccc(C(=O)Nc2ccc3nc(N4CCN(CC)CC4)cc(C)c3c2)cc1` here?
A: inconclusive: 15.8 µM [inhibitor, partial curve]

Q: `CCOC(=O)c1ccccc1NC(=O)CSc1nnc(CC)n2c1cc1occc12` was tested. Which Potency did it give?
A: inconclusive: 15.8 µM [inhibitor, partial curve, poor fit]

Q: `N#CC1=C2SC=C(c3ccc(Br)cc3)N2CCCC1=O` was tested. Which Potency did it give?
A: inconclusive: 12.6 µM [inhibitor, partial curve]

Q: For `CC(=O)Nc1ccc2c(c1)C(C)(C)C(C)N2C` (stereo unspecified), which Potency is on record?
A: inconclusive: 22.4 µM [inhibitor, single point]

Q: `Cc1[nH]nc(-c2ccc(O)cc2O)c1-c1ccc(Cl)cc1` was tested. Which Potency did it give?
A: inactive

Q: How did the Potency turn out when `CCCSC1=C(C#N)C(c2cccs2)CC(=O)N1` (stereo unspecified) was run?
A: inactive

Q: How did the Potency turn out when `COC(=O)c1ccc(NC(=O)C2CCN(c3ncnc4c3nc3n4CCCCC3)CC2)cc1` was run?
A: inactive

Q: Which Potency does the source give for `CCOc1ccc(OCc2ccc(C(=O)N(CC)CC)cc2)cc1` here?
A: inconclusive: 12.6 µM [inhibitor, partial curve]

Q: `Cc1nn(-c2ccccc2)nc1C(=O)NNC(=O)c1ccc(C(F)(F)F)cc1` was tested. Which Potency did it give?
A: inconclusive: 28.2 µM [inhibitor, single point]

Q: For `COc1cccc(-c2nc(CS(=O)(=O)CC(=O)Nc3cccc(C(C)=O)c3)c(C)o2)c1`, which Potency is on record?
A: inactive

Q: `COc1ccc(O)c(C(=O)c2cnc3nc4ccccc4n3c2)c1` was tested. Which Potency did it give?
A: inconclusive: 28.2 µM [inhibitor, single point]

Q: How did the Potency turn out when `COc1cc(CN(C(=O)c2ccc(OC(C)C)cc2)c2ccccn2)cc(OC)c1OC` was run?
A: inconclusive: 20 µM [inhibitor, single point]

Q: `COC(=O)c1ccc(/C=N/Nc2nc3ccccc3[nH]2)cc1` was tested. Which Potency did it give?
A: inconclusive: 2.82 µM [inhibitor, full curve]

Q: `Nc1cccn2c(-c3ccc(Cl)c(Cl)c3)cnc12` was tested. Which Potency did it give?
A: active: 12.6 µM

Q: With `O=C(c1ccccc1[N+](=O)[O-])N1CCc2ccccc2C1` as the molecule, how does the Potency read?
A: inactive

Q: Which Potency does the source give for `CC(C)N=c1scc(-c2cccs2)n1/N=C/c1ccc(O)c(O)c1O` here?
A: active: 15.8 µM

Q: For `CC(=O)NCCNC(=O)c1ccc(-n2c(C)ccc2C)cc1`, which Potency is on record?
A: inconclusive: 28.2 µM [inhibitor, single point]

Q: Which Potency does the source give for `COc1ccc(/C=N/NC(=O)c2csc(-n3nc(C)cc3C(F)(F)F)n2)cc1` here?
A: inconclusive: 4.47 µM [inhibitor, partial curve]

Q: How did the Potency turn out when `COc1ccc(CCNc2ncnc3c2c(-c2ccccc2)cn3-c2ccc(Cl)cc2)cc1OC` was run?
A: inactive

Q: How did the Potency turn out when `COC(=O)c1cccc(NC(=O)/C=C/c2cccc([N+](=O)[O-])c2)c1` was run?
A: inconclusive: 3.55 µM [inhibitor, full curve]

Q: `COc1ccc(-c2cn3nc(N4CCCC(C(=O)Nc5cc(C)cc(C)c5)C4)sc3n2)cc1` (stereo unspecified) was tested. Which Potency did it give?
A: inconclusive: 7.08 µM [inhibitor, full curve]

Q: For `CC(C)(C)C1CCc2c(sc(NC(=O)c3ccc(Cl)cc3)c2C(=O)NCc2ccco2)C1` (stereo unspecified), which Potency is on record?
A: inactive

Q: `COc1ccccc1N1CCN(c2ncnc3c2cnn3-c2cccc(Cl)c2)CC1` was tested. Which Potency did it give?
A: inconclusive: 1 µM [inhibitor, full curve, poor fit]

Q: For `COc1ccc(-c2[nH]c(-c3cccc(OC)c3)nc2SCC(=O)NC2CCCC2)cc1`, which Potency is on record?
A: inconclusive: 25.1 µM [inhibitor, single point]

Q: `Cc1ccc(C2=NC3(CCCC3)N=C2SCC(=O)Nc2ccc3c(c2)OCCO3)cc1` was tested. Which Potency did it give?
A: inconclusive: 12.6 µM [inhibitor, partial curve, poor fit]

Q: `O=c1c(Cl)c(NCc2ccccc2Cl)cnn1C12CC3CC(CC(C3)C1)C2` was tested. Which Potency did it give?
A: inconclusive: 15.8 µM [inhibitor, partial curve]

Q: For `NC(=O)c1c(NC(NC(=O)c2ccco2)C(=O)c2ccc(Cl)cc2)sc2c1CCCC2` (stereo unspecified), which Potency is on record?
A: active: 25.1 µM
